In all, about 310,000 compounds went through this assay and about 2,200 (0.71%) showed an effect of 50% or more. The effect is printed as a negative number. Some of the results follow. Where a SMILES comes first, the peptide text is derived from it. [ ]: non-standard residue; d: D form. The star is where a group is joined. Tic = O=C(O)[C@@H]1Cc2ccccc2CN1; NHPr = CCCN*
The compounds below were run against human ether-à-go-go-related gene (hERG) potassium channel (human, UniProt Q12809) (assay: primary screen, population patch clamp on CHO cells stably expressing hERG).
human ether-à-go-go-related gene (hERG) potassium channel, sequence (Q12809 whole entry, looked up): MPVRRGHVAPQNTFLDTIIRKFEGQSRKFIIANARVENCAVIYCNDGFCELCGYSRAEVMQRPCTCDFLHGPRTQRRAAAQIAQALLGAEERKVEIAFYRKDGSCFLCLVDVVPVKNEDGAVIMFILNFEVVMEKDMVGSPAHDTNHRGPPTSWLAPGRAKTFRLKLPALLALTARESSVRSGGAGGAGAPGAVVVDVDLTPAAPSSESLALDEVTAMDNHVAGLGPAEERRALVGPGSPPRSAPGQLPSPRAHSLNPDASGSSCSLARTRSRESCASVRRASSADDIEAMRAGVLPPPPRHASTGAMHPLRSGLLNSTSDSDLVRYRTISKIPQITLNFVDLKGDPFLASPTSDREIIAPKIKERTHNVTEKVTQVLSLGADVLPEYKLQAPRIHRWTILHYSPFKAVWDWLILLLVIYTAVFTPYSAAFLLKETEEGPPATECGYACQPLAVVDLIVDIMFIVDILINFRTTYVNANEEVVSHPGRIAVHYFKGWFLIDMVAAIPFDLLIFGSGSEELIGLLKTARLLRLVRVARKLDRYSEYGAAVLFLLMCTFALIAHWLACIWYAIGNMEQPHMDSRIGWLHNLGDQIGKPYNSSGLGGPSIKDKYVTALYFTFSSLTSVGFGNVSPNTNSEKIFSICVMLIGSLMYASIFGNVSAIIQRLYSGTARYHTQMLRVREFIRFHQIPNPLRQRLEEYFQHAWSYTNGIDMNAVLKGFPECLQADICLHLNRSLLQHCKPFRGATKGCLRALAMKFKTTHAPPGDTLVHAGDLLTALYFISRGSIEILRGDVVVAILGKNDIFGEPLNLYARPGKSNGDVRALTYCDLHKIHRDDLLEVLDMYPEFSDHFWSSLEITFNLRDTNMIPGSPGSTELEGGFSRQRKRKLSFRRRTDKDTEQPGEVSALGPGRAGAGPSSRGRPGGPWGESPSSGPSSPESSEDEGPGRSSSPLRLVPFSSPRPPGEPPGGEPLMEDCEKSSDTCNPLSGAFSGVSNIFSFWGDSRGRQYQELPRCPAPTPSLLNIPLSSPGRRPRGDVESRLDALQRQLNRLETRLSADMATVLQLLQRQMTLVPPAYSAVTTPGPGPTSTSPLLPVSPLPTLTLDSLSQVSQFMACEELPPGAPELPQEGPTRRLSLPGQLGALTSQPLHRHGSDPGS

Row | Compound | hERG current change (%, negative = inhibition) at 1uM [%]
1 | COc1ccc(C)cc1NC(=O)Nc1ccc(Br)cn1 | 14.8
2 | Cc1ccc(Cl)cc1NC(=S)N(Cc1cccs1)C1CCCC1 | 16.3
3 | O=C(Nc1ccccc1N1CCN(C(=O)c2ccccc2)CC1)c1ccco1 | -34.3
4 | CCOC(=O)c1c(CSc2ccccc2)oc2ccc(O)cc12 | 0.183
5 | O=C(Nc1cccc(C(=O)N2CCCCC2)c1)c1ccccc1Br | -3.81
6 | Cn1c(C(=O)N2CCCC(C(=O)NCCc3ccccc3)C2)cc2sccc21 (centres unmarked) | 2.42
7 | COc1ccc(Cl)cc1NC(=O)CC(C)=O | 11.1
8 | COc1ccccc1OCc1ccc(C(=O)N2CCOCC2)o1 | 4.23
9 | O=C(COC(=O)c1cnc(Cl)c(Cl)c1)NCc1ccc2c(c1)OCO2 | 16.2
10 | COc1cc(-c2nc(C(F)(F)F)c(OC)o2)cc(OC)c1OC | 14
11 | COc1ccc(C2CC(c3ccco3)n3ncnc3N2)cc1 (centres unmarked) | -4.58
12 | Cc1ccc(S(=O)(=O)N2CCCCC2)cc1C(=O)NC1CCCCC1 | 8.41
13 | COCCN(CC(=O)Nc1ccccc1C(F)(F)F)C(=O)/C=C/c1ccc2ccccc2n1 | 5.34
14 | COc1ccc(C2Nc3ccccc3C(=O)N2c2ccc(C)cc2)cc1Cn1cc([N+](=O)[O-])cn1 (centres unmarked) | 11.1
15 | O=C1Cc2ccccc2Sc2ccccc21 | 11.7
16 | O=C(/C=C/Nc1ccc(F)cc1F)c1ccco1 | 5.55
17 | CCN1CCN(c2ccc(NC(=O)COc3ccc([N+](=O)[O-])cc3)cc2)CC1 | 2.34
18 | COc1ccc(Br)cc1CNc1ccc(O)cc1 | 10.8
19 | O=C(CCS(=O)(=O)c1ccc(Cl)cc1)N1CCN(c2ccc(F)cc2)CC1 | -23.8
20 | CC(C)(C)C(=O)NC1CCN(S(=O)(=O)c2cccc(C(F)(F)F)c2)CC1 | 4.11
21 | Cc1ccc(N(C(=O)Nc2ccccc2)C2=NCCC2)cc1 | 15.5
22 | Cc1ccnc(NCc2cccc3ccccc23)c1.Cl | 14
23 | Cc1ccc(NC(=O)CSc2nnc(C)c(=O)n2N)cc1Cl | 1.15

Row | Compound | hERG current change (%, negative = inhibition) at 1uM [%]
24 | COc1ccc(CCNC(=O)c2c(O)c3ccccc3[nH]c2=O)cc1 | 9.73
25 | O=C(CCNC(=O)Cn1cnc2ccccc2c1=O)NCCC1=CCCCC1 | 9.44
26 | CC1=NN(c2ccccc2)C(=O)C1C=Nc1ccc(N(C)C)cc1 (centres unmarked) | 16.5
27 | Cc1nn(-c2ccccc2)c(N2CCCC2)c1/C=N/NC(=S)Nc1ccccc1F | 7.19
28 | C1CCN(C2CCN(c3nc4nonc4nc3N3CCSCC3)CC2)C1 | 5.07
29 | CSc1nnc(NC(=O)c2cccc(S(=O)(=O)N3CCOCC3)c2)s1 | -1.42
30 | Cc1[nH]c2ccccc2c1/C=N/NC(=O)Nc1ccccc1 | 6.44
31 | COc1ccc(CNC(=O)C2CC(=O)N(C3CCCC3)C2)cc1 (centres unmarked) | 20.2
32 | CCc1ccc(NC(=O)N(CCCN2CCOCC2)Cc2cccs2)cc1 | -13.7
33 | CCOC(=O)c1c(NC(=O)COC(=O)Cn2c(C)nc3ccccc32)sc2c1CCCC2 | 7.53
34 | CC(=O)Nc1ccc(S(=O)(=O)NC2CC(=O)N(c3ccc4c(c3)OCCO4)C2)cc1 (centres unmarked) | 2.51
35 | c1ccc2c(Nc3nc(-c4ccncc4)nc4ccccc34)cccc2c1 | 24.2
36 | CC(OC(=O)c1cc2sccc2n1C)C(=O)NCc1cccs1 (centres unmarked) | 14.1
37 | Cc1nnc(NC(=O)CSc2ccccn2)s1 | -3.34
38 | CCOc1cccc(-c2cc(C(=O)N/N=C/c3ccc(OC)c(CN4CCOCC4)c3)c3ccccc3n2)c1 | 18.7
39 | O=C(NCCSc1ncc(-c2ccccc2)[nH]1)c1ccco1 | 5.68
40 | Nc1cc(S(=O)(=O)N2CCCCC2)ccc1Oc1ccccc1 | 10.4
41 | O=C(O)c1ccc(S(=O)(=O)N(CCc2ccccc2)Cc2ccc(Cl)cc2)cc1 | 11.5
42 | Oc1cc2c(cc1CN1CCN(c3ncccn3)CC1)OCO2 | 13.9
43 | O=C(CCCn1c(=O)[nH]c2cc(Cl)ccc2c1=O)NCC1CCCO1 (centres unmarked) | 2.24
44 | COc1ccc(OC)c(CN2CCC(N3CCC(C(=O)NC4CC4)CC3)CC2)c1 | 4.7
45 | Cc1cc(C(=O)OCC(=O)N2CCCCCC2)ccc1[N+](=O)[O-] | 5.49
46 | O=C(Nc1scc(-c2ccccc2)c1C(=O)O)c1ccccc1F | 16.8

Row | Compound | hERG current change (%, negative = inhibition) at 1uM [%]
47 | C/C(CC(=O)Nc1ccc2ccccc2c1)=N\NC(=O)c1ccc(O)c(O)c1 | 2.59
48 | COCCOC(=O)C1=C(C)N(Cc2ccccc2)C(=O)NC1c1cccc(OC)c1OC (centres unmarked) | -3.34
49 | Cn1cccc1/C=N/NC(=O)c1ccco1 | 12.2
50 | Cc1ccnc2nc(C(=O)OCCOc3cccc(Br)c3)nn12 | 0.365
51 | CC(C(=O)NCC(=O)Nc1ccc(F)c(F)c1F)N1CCN(Cc2ccc(C#N)cc2)CC1 (centres unmarked) | -11.8
52 | CNC(=S)Nc1cc(C(F)(F)F)ccc1Cl | -4.86
53 | COc1ccccc1/C=C/C=C1N=C(/C=C/c2ccc(Cl)cc2)OC/1=O | -8
54 | Cc1cccc(Cn2c(=O)n(-c3ccc(CC(=O)NCc4ccco4)cc3)c(=O)c3sccc32)c1 | 3.63
55 | C=CCN=C1NN=C(c2cc(C)n(CCOC)c2C)CS1.Cl | -0.114
56 | Cc1ccc(/C=N/n2nnnc2N)cc1[N+](=O)[O-] | 10.1
57 | O=C(Nc1ccc(-c2nc3ccccc3s2)cc1)C1=COCCO1 | 20.3
58 | Br.Clc1ccc(C2=CSC3=NCCN23)cc1Cl | -19.8
59 | COc1cccc(CNC(=O)Cn2cccc2)c1 | -0.7
60 | COc1ccc(NC(=O)C(C)NS(=O)(=O)c2ccccc2)cc1Cl (centres unmarked) | -4.57
61 | CCC(=O)N1CCn2c1nc1ccccc12 | 7.73
62 | COc1cccc(/C=N/NC(=O)Cn2ccnc2C)c1 | 1.04
63 | CN(C)c1cccc(C(=O)Nc2cccc(F)c2)c1 | 11.2
64 | COc1ccc(NC2c3ncccc3C(=O)N2Cc2ccccc2)c(OC)c1 (centres unmarked) | -0.125
65 | Cc1cc(NC(=O)COC(=O)[C@H](Cc2c[nH]c3ccccc23)NC(=O)c2ccc(F)cc2)no1 | 3.7
66 | COc1ccc(C2SCC(=O)Nc3c2c(=O)[nH]n3C2CCCCCC2)cc1 (centres unmarked) | 1.43
67 | CCCNC(=O)[C@@H]1CCCN1C(=O)[C@@H]1Cc2ccccc2CN1.Cl (H-[Tic]-Pro-NHPr) | 15.9
68 | CCC(=O)Nc1nc2ccc3sc(C)nc3c2s1 | 6.81
69 | CCCCCC(=O)Nc1cc(S(=O)(=O)N2CCCCC2)ccc1N1CCOCC1 | 0.388

Row | Compound | hERG current change (%, negative = inhibition) at 1uM [%]
70 | Cc1cc(Br)ccc1NC(=O)CN1CCN(c2ccccn2)CC1 | -49.6
71 | CCCn1c(=O)n(C)c(=O)c2c(SC(C)C(=O)NCC3CCCO3)nc(CC(C)C)nc21 (centres unmarked) | 21.2
72 | CCc1cc2c(SCc3nc4sc(C(C)=O)c(C)c4c(=O)[nH]3)ncnc2s1 | 12.1
73 | Cc1ccc(/C=C2\OC(=O)c3ccccc32)cc1 | 18.9
74 | CCOC(=O)C(C)Sc1nnc(-c2ccccc2O)n1-c1ccc(C)cc1 (centres unmarked) | -2.26
75 | CCC(C)NC(=O)CCn1c(=O)c2cccn2c2ccc(F)cc21 (centres unmarked) | 14.1
76 | COc1cnn(-c2ccccc2)c(=O)c1SCc1ccc(Cl)cc1Cl | -6.86
77 | COCCn1c(Cc2ccccc2)nnc1SCC(=O)N1CCCC1=O | 10.8
78 | C/C(=N/NC(=O)CNc1ccc(C)cc1)c1ccc(Cl)cc1 | 15
79 | Cc1ccc(C)c(S(=O)(=O)N2CCN(C(=O)CCc3c[nH]c4ccccc34)CC2)c1 | -6.4
80 | COc1ccc(/C=N/O)cc1COc1ccc(NC(C)=O)cc1 | -0.0462
81 | CCOc1ccccc1C(=O)NCC(=O)OCc1c(C)noc1C | 8.49
82 | CCOC(=O)c1ccccc1NC(=O)COC | 7.66
83 | CN(CCc1ccccc1)C1CCCN(S(=O)(=O)N(C)C)C1 (centres unmarked) | 11.6
84 | Cc1nc2ccc(S(=O)(=O)c3ccc4nc(C)[nH]c4c3)cc2[nH]1 | 15.4
85 | COC(=O)[C@@]12CCCCN1[C@H](c1ccc(SC3CCCCC3)cc1)[C@@H]1C(=O)N(C)C(=O)[C@@H]12.O=C(O)C(F)(F)F | 8.22
86 | COc1cc(/C=C2/C(C)=C(C#N)c3nc(N)c(C#N)c(C)c32)ccc1OCC(=O)O | 8.94
87 | O=C(CSc1nnc(Nc2ccccc2)s1)Nc1cccc(S(=O)(=O)N2CCCCC2)c1 | 10.3
88 | C=CC(C)(C)O[C@@H]1O[C@H](CO)[C@@H](O)[C@H](O)[C@H]1O | 17.2
89 | Cc1nn(-c2ccc([N+](=O)[O-])cc2)c2c1C(c1cccc(Br)c1)N1C(=N2)C(=O)Nc2ccccc21 (centres unmarked) | 7.48

From article PMC4336329 (PLoS ONE, 2015)
